# Out of some 52,000 compounds screened, about 4,300 (8.3%) were called active. No stated cut-off is given here; in the data, active means survival mostly below about 52% (no sharp cut-off); inactive means mostly above about 56%. The list shows a part of the results.
# Tested on: DeltatarO mutant
# Assay: growth inhibition of S. aureus wild type versus tarO mutant, primary screen, teichoic acid synthesis inhibitors, RN4220, OD600 (AID 463173)
# Settings: OD600, 18 h, hits give low values, screened at 18.75 µg/mL (by protocol)
row,Compound,survival
1,COC(=O)CCc1csc(N)n1,inactive: 96%
2,COc1cccc(NC(=O)Cn2c(=O)n(-c3ccc(C)cc3)c(=O)c3ccc(C(=O)NCc4ccco4)cc32)c1,inactive: 80%
3,O=S(=O)(Nc1cccc(-c2ccc(N3CCCCCC3)nn2)c1)c1cccc(F)c1,inactive: 84%
4,CCOc1ccccc1N(CC(=O)N1CCc2ccccc2C1)S(=O)(=O)c1ccccc1,active: 37%
5,N#CCn1cc(C(=O)C(F)(F)F)c2ccccc21,inactive: 111%
6,Cc1nc2ncnn2c(C)c1CCC(=O)NCc1ccccc1Cl,inactive: 97%
7,O=C(Cn1cc(SCc2c(F)cccc2Cl)c2ccccc21)N1CCCCCC1,inactive: 69%
8,O=C(O)C1C2C=CC(C2)C1C(=O)NCC1CCCO1 (stereo unspecified),inactive: 91%
9,COc1ccc(-n2nc(C(=O)N(C)c3cc(C)ccc3C)c3c4ccccc4n(C)c3c2=O)cc1Cl,inactive: 110%
10,Cc1ccccc1OCC(=O)N1CCOCC1,inactive: 102%
11,CCOc1ccc(NS(=O)(=O)c2ccc(-c3cc(C)no3)s2)cc1,inactive: 87%
12,c1ccc(-n2ncc3c(N4CCOCC4)ncnc32)cc1,inactive: 68%
13,CC(C)Oc1ccc(CNC(=O)CCCN2C(=O)c3cccnc3Oc3ccc(Cl)cc32)cc1,inactive: 88%
14,CCC(=O)N1CCc2cc(Br)cc(S(=O)(=O)Nc3ccc(C)cc3C)c21,inactive: 94%
15,Cc1ccc(C(=O)ON2C(=O)c3ccccc3C2=O)cc1,inactive: 75%
16,COc1ccc(CC(=O)N2CCc3cc(OC)c(OC)cc3C2COc2ccc(OC)cc2)cc1 (stereo unspecified),inactive: 135%
17,CCN(C(=O)c1cc2c(s1)-c1c(C)cccc1OC2)c1ccccc1F,inactive: 97%
18,CCc1cc(=O)oc2c3c(c(Cl)cc12)OCN(Cc1cccc(OC)c1)C3,inactive: 71%
19,Cc1cc2ccccc2n1CCNC(=O)c1cccc(Br)c1,inactive: 56%
20,O=C(CSc1cn(CC(=O)N2CCOCC2)c2ccccc12)Nc1ccccc1F,inactive: 88%
21,O=C(Nc1ccc2nn(-c3ccccc3)nc2c1)c1cc2ccccc2o1,inactive: 63%
22,COc1ccc2oc(=O)cc(CN3CCN(Cc4ccccc4)CC3)c2c1,inactive: 83%
23,c1ccc(CSc2n[nH]c(-c3ccncc3)n2)cc1,inactive: 103%

row,Compound,survival
1,Cc1c(Cl)cccc1NC(=O)c1cnc2sc(N3CCOCC3)nn2c1=O,inactive: 123%
2,CCN(c1ccccc1)S(=O)(=O)c1ccc(NC(=O)c2cc(=O)c3cc(C)cc(C)c3o2)cc1,inactive: 70%
3,CCC(=O)N1c2ccccc2CC1C(=O)NCCc1ccccc1C (stereo unspecified),inactive: 71%
4,COc1cccc(N2CCN(C(=O)c3ccc(Cn4c(=O)[nH]c5cc(OC)c(OC)cc5c4=O)cc3)CC2)c1,inactive: 79%
5,CC(NS(=O)(=O)c1ccccc1)C(=O)NCc1ccc2c(c1)OCO2 (stereo unspecified),inactive: 78%
6,COc1ccc(C(CNC(=O)c2oc3ccc(Cl)cc3c2C)N2CCCCC2)cc1 (stereo unspecified),inactive: 106%
7,O=C(c1ccc2c(c1)N(Cc1ccc(Cl)cc1)C(=O)c1ccccc1S2=O)N1CCOCC1 (stereo unspecified),inactive: 72%
8,Cc1cc(C)c2c(CC(=O)N3CCN(c4cccc(Cl)c4)CC3)coc2c1,inactive: 61%
9,CCOc1ccccc1N1CC(c2nc3ccccc3n2CCOc2ccccc2)CC1=O (stereo unspecified),active: 32%
10,CCc1cccc(NC(=O)Cn2c(=O)ccc3cc(S(=O)(=O)N4CCC(C)CC4)ccc32)c1,inactive: 131%
11,CCc1ccc(CNc2ncnc3c2nc2n3CCCC2)cc1,inactive: 89%
12,O=C(CSc1nc2ccccc2n1Cc1ccccc1)N1CCN(c2ccc(F)cc2)CC1,inactive: 56%
13,COc1ccc(-n2cc(C(=O)NCc3ccccc3)c3ccccc3c2=O)cc1,inactive: 61%
14,COc1ccc(CN2CCN(Cc3cc(=O)oc4cc(C)ccc34)CC2)c(OC)c1OC,inactive: 101%
15,CCCC(=O)N(c1ccc2oc3c(c2c1)CCCC3)S(=O)(=O)c1cc(C)ccc1C,active: 35%
16,O=C1CC(c2nc3ccccc3[nH]2)CN1c1cccc(Cl)c1 (stereo unspecified),inactive: 81%
17,COC(=O)c1ccc(CSc2nc3c([nH]c4ccccc43)c(=O)n2-c2ccc(Cl)cc2)o1,inactive: 112%
18,Nc1nnc2c(n1)[nH]c1ccccc12,inactive: 81%
19,COc1cccc(CSc2nc3cc(C(=O)NC4CCCC4)ccc3c(=O)n2Cc2ccccc2)c1,inactive: 75%
20,Cc1ccc(OCC(=O)OCc2cc(=O)n3nc(-c4cccs4)sc3n2)cc1C,inactive: 102%
21,Cc1ccc(-c2nc3n(n2)C(=O)CC(c2ccc(Cl)cc2)S3)cc1 (stereo unspecified),inactive: 88%
22,Cc1cc(C)c(NC(=O)Cn2c(=O)n(-c3ccc(CC(=O)NCC4CCCO4)cc3)c(=O)c3ccccc32)c(C)c1 (stereo unspecified),inactive: 120%
23,O=C(NCc1ccc(F)cc1)c1cc2n(n1)CCCN(Cc1ccc(F)cc1)C2=O,inactive: 64%

row,Compound,survival
1,Cc1ccc(C(=O)Nc2sc3c(c2C(=O)NCc2ccco2)CCC(C(C)(C)C)C3)cc1 (stereo unspecified),inactive: 64%
2,Cc1ccsc1CN(C(=O)COc1ccc(Br)cc1)C1CCS(=O)(=O)C1 (stereo unspecified),inactive: 73%
3,Cc1ccc(OCC(=O)Nc2cc3nn(-c4ccccc4)nc3cc2C)cc1,inactive: 76%
4,CCOc1ccc(Sc2cc(C(=O)NC(C)c3ccccc3)c3ccccc3n2)cc1 (stereo unspecified),inactive: 75%
5,Cc1ccc(C(=O)Nc2ccc(NC(=O)c3cccs3)cc2)cc1C,inactive: 66%
6,COc1ccc(CCCc2nnc(SCC(=O)Nc3ccc(C)cc3)o2)cc1,inactive: 71%
7,CCOc1ccc(-c2ccc(NS(=O)(=O)c3ccc(C)cc3)cc2)nn1,inactive: 91%
8,O=C(CCc1nc(-c2cccs2)no1)Nc1cccc([N+](=O)[O-])c1,inactive: 72%
9,Cc1ccc(C)c(N2CCN(C(c3ccccc3)c3nnc(-c4ccccc4F)o3)CC2)c1 (stereo unspecified),inactive: 61%
10,COc1ccc(C(=O)c2ccc(OC)cc2OC)c(OC)c1,inactive: 83%
11,COc1ccc(CN(CCN2CCOCC2)C(=O)c2cc3sccc3n2Cc2ccccc2)cc1,inactive: 98%
12,Fc1ccc(-c2noc3ncnc(NCCc4ccccc4)c23)cc1,inactive: 76%
13,CCOc1ccc(-c2nonc2NC(=O)COc2c(C)cc(C)cc2C)cc1OCC,inactive: 101%
14,COc1ccc(Nc2nc(-c3ccc(C)cc3)nc3ccccc23)c(OC)c1,inactive: 75%
15,CCCCCn1c(C(C)NC(=O)c2ccccc2)nc2ccccc21 (stereo unspecified),inactive: 81%
16,O=C(c1c(F)cccc1F)N1CCCC(c2nc(-c3cccs3)no2)C1 (stereo unspecified),inactive: 88%
17,COc1ccc2c(c1)c1c(c(=O)n(Cc3ccccc3)c(=O)n1CC(=O)NCc1ccccc1Cl)n2C,inactive: 72%
18,CCc1nn(CC(=O)NCCc2ccc(OC)cc2OC)c(=O)c2cc3c(OC)cccc3n12,inactive: 73%
19,COc1ccc2c(CNCc3cccs3)c(C(=O)O)n(Cc3ccccc3)c2c1,inactive: 83%
20,Cc1c(CCNC(=O)c2ccc(Br)o2)sc2nc(-c3ccc(F)cc3)nn12,inactive: 83%
21,COc1ccc(NC(=O)Cn2c(SCc3cc(C)ccc3C)nc3ccncc32)c(OC)c1OC,inactive: 61%
22,CCOc1ccccc1NC(=O)Cn1cc(C(=O)c2cccc(OC)c2)c(=O)c2ccc(C)nc21,inactive: 77%
23,CCOc1ccccc1C(=O)Nc1ccc(S(=O)(=O)Nc2nc(C)cc(C)n2)cc1,inactive: 83%

row,Compound,survival
1,CCc1cccc(NC(=O)CSC2=Nc3ccccc3N=C(c3ccc(F)cc3)C2)c1,inactive: 119%
2,COc1cc(NC(=O)CN(c2ccc(C)cc2)S(=O)(=O)c2cccc3nonc23)cc(OC)c1,inactive: 52%
3,CCN1CCN(c2nc3c(S(=O)(=O)c4ccc(Br)cc4)nnn3c3ccsc23)CC1,inactive: 106%
4,O=C(CSc1nnc(CNC(=O)c2cccc(F)c2)n1-c1ccccc1)Nc1ccccc1F,inactive: 70%
5,Cc1ccc(NC(=O)Cn2cnc3sc(C(=O)O)c(C)c3c2=O)cc1Cl,inactive: 70%
6,COC(=O)CNc1nc(C2CC2)nc2c1nnn2Cc1ccccc1Cl,inactive: 112%
7,COc1cc(Cl)c(NC(=O)CCS(=O)(=O)c2cc3c(cc2Cl)NC(=O)CO3)c(OC)c1,inactive: 83%
8,COc1ccc(OC)c2sc(N3CCN(C(=O)C(C)(C)C)CC3)nc12,inactive: 89%
9,COc1cc(-c2cc(OC)c3c(C)oc(C)c3c(=O)c2)ccc1OC(=O)c1ccccc1Cl,inactive: 93%
10,Cc1ccc(-c2cc3ncc4c(n3n2)-c2cc(C)ccc2OC4)cc1,inactive: 68%
11,O=C(O)CSCC(=O)Nc1cccc2ccccc12,inactive: 78%
12,CC(=O)Nc1ccc(S(=O)(=O)Nn2cnnc2)cc1,inactive: 88%
13,CCOC(=O)C1=C(CN2CCC(C)CC2)NC(=O)NC1c1ccc(F)cc1 (stereo unspecified),inactive: 73%
14,Cc1ccc2nc(N3CCN(c4cccc(Cl)c4)CC3)c(-n3nc(C)cc3C)nc2c1,active: 0%
15,COc1ccc(CCn2cc3c(c2-c2ccc(Br)cc2)c(=O)n(C)c(=O)n3C)cc1OC,inactive: 53%
16,Cc1ccc(C(C)C)c(OCC(=O)NCC2(N(C)C)CCCCC2)c1,inactive: 95%
17,Cc1ccccc1C(=O)n1nc(-c2ccco2)nc1NCc1ccc(Cl)cc1,inactive: 80%
18,Cc1ccccc1N1CC(c2nc3ccccc3n2CCC2CCCCC2)CC1=O (stereo unspecified),active: 16%
19,O=C(NC1CCN(Cc2nnnn2Cc2ccc3c(c2)OCO3)CC1)c1ccccc1F,inactive: 91%
20,COc1ccc(-c2nc(C)c(CCNC(=O)C(=O)Nc3ccccc3OC)s2)cc1,inactive: 89%
21,O=C(NCCc1ccccc1Cl)c1ccc(Cn2c(=O)c3cccn3c3cccnc32)cc1,inactive: 49%
22,O=C(COc1ccc(Cl)cc1)Nc1ccc(-c2nc3ccccc3s2)c(O)c1,inactive: 68%

# Reference: PubChem BioAssay AID463173 (ICCB-Longwood Screening Facility, Harvard Medical School, 2010)
